From the supplement of paper PMC3334620
Over roughly 33,000 sequences, “E-score (-0.5 to 0.5)” has its median near -0.021; the highest 2% begin near 0.32. This is one part of the list.

target: T1, Zap1 (UniProt P47043); experiment: PBM E-score (8-mer binding enrichment) (E-score (-0.5 to 0.5)); higher = stronger / more preferred TF binding; most listed sequences are background and not binding sites; conditions: protein concentration: 200 nM; construct: GST-full length
T1 sequence: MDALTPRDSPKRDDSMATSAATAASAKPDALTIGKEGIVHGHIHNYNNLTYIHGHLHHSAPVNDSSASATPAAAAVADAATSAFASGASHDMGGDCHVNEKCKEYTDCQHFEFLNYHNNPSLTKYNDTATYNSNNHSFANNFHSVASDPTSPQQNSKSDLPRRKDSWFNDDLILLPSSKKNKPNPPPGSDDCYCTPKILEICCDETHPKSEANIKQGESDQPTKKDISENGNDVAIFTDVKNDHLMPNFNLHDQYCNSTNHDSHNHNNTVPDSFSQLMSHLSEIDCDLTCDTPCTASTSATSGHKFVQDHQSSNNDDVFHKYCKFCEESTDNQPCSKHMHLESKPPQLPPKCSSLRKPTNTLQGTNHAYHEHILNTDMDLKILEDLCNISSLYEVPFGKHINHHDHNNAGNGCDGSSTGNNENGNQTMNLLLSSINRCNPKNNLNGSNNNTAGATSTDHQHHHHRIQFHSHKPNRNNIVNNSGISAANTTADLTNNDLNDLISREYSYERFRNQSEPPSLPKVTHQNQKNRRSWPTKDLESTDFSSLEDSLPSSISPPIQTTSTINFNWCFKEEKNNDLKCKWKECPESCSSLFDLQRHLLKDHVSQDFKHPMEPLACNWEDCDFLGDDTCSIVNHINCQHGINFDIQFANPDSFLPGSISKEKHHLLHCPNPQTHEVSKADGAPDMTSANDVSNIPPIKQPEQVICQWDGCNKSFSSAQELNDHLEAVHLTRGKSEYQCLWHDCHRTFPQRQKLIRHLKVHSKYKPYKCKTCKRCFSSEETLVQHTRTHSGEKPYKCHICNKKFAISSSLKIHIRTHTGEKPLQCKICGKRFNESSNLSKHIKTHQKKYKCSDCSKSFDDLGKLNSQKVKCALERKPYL
Summary of the method: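 Bound GST-tagged yeast transcription factors, applied at about 100-200 nM to double-stranded universal all-10-mer Agilent arrays, were detected with fluorescent anti-GST. Scans were normalised with masliner. A modified Wilcoxon-Mann-Whitney statistic, the E-score, was assigned to each ungapped eight-base word pooled with its reverse complement by the Universal PBM Analysis Suite.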

| Sequence | PBM E-score |
| --- | --- |
| AACGTGGT | 0.071 |
| GAAAGCCC | -0.134 |
| GCTCATAC | -0.268 |
| ATGAAGAA | 0.0935 |
| AGTCTATG | -0.132 |
| TATGACGA | -0.0547 |
| CTGCGGTC | 0.225 |
| ATCAAGCA | 0.0882 |
| CCAGTATA | 0.0579 |
| ATCCATAG | -0.114 |
| CCTTAAAA | 0.145 |
| AAGGCACT | -0.257 |
| TGAGACAA | -0.0439 |
| GAACCATA | 0.206 |
| CCTTGAAA | 0.199 |
| ATGCGGTG | -0.0188 |
| ATAAGCAA | 0.0687 |
| TGAGTACA | -0.0799 |
| CCCTATGA | 0.0442 |
| CCATTGCG | -0.126 |
| CTCATTAA | 0.139 |
| TCATTGGA | 0.132 |
| TGATGAAA | 0.29 |
| GCAGGAAA | 0.0975 |
| CTCAGTTA | 0.079 |

| Sequence | PBM E-score |
| --- | --- |
| CCGGTAGC | -0.12 |
| AGTCTCTA | -0.193 |
| AATTAGTA | 0.158 |
| CGAAGAAC | 0.118 |
| GTGCGAGA | -0.128 |
| CGGTCGAG | -0.18 |
| CTCTCTCC | -0.251 |
| ATTGCACG | 0.0703 |
| CTCCCTGC | -0.212 |
| GAGGACGA | 0.0805 |
| ACACCTCG | 0.00328 |
| AAAATGGA | 0.204 |
| CAGTCAGC | -0.16 |
| CTTCAAAA | 0.0592 |
| CATGTACG | 0.0271 |
| ACTCAATA | 0.183 |
| GAATCGAA | 0.0223 |
| GCTTTATA | -0.0325 |
| GACCGACA | -0.15 |
| GCAATAAC | 0.208 |
| ATAGTATA | 0.246 |
| AATCGTAC | 0.0163 |
| AATAGGAC | 0.0955 |
| CAGCGTTC | -0.25 |
| GCATGGAA | -0.169 |

| Sequence | PBM E-score |
| --- | --- |
| AATGTATA | 0.0785 |
| ACGTGACA | -0.11 |
| ACTGGACA | -0.0153 |
| GACCGAGC | -0.18 |
| ACTACTCT | -0.0309 |
| AGCGTCTA | -0.214 |
| GTCCGTCA | 0.147 |
| ACACCGAA | 0.11 |
| AGAAACCT | 0.116 |
| AGCAGCAC | -0.0165 |
| TACAACTA | 0.217 |
| ATGAAACA | 0.18 |
| CTGCTGAA | -0.176 |
| AGGGGTCG | 0.0682 |
| CTGTCGTC | -0.112 |
| GACCAGCC | -0.0721 |
| AACACTAT | 0.17 |
| AGTGTCAC | -0.0372 |
| CCGTGCAA | 0.0682 |
| AGAGTAAG | 0.0042 |
| GGATGACC | 0.279 |
| AACCAGGC | 0.0767 |
| TCGTGAGA | -0.0186 |
| CTCGCACC | -0.265 |
| AAAGGCGC | -0.0832 |

| Sequence | PBM E-score |
| --- | --- |
| TCAAGTCA | 0.0291 |
| GTCCGGCA | -0.162 |
| AAGGCGAA | -0.257 |
| AAGAATTC | -0.067 |
| GTCTGAAC | -0.042 |
| ACGTTTTC | -0.0317 |
| AGGCAACC | 0.203 |
| ATTAAAAA | 0.251 |
| ATATGAAC | 0.205 |
| ACCGGCAT | 0.0285 |
| CCAGTGAC | 0.00157 |
| GTCACGGA | 0.0228 |
| CAGATTGG | -0.212 |
| AAGATACA | 0.0781 |
| AAGAAGTA | -0.00592 |
| ATATGGGG | -0.0334 |
| AGAGAGCG | -0.375 |
| CACCAAGC | -0.164 |
| CAGTCCCC | -0.146 |
| ATGGGGGC | -0.162 |
| GGTCTGTA | 0.171 |
| CACAAATG | 0.13 |
| ACTAGACG | -0.0556 |
| GCGGACCC | 0.212 |
| GTACGGCA | -0.0507 |

| Sequence | PBM E-score |
| --- | --- |
| CAACGGAA | 0.0549 |
| AGTTCCTC | -0.123 |
| CCAACCGG | 0.16 |
| ATAGACAC | -0.111 |
| TGGACCAA | -0.127 |
| AGATACAC | 0.0774 |
| ACCGGGCT | -0.239 |
| GATTCGAA | 0.0926 |
| GCCGATCA | -0.135 |
| ACTAATTA | 0.233 |
| CACCATCC | -0.166 |
| AGATTGCT | -0.268 |
| CATCACAC | 0.0139 |
| AAATCAGC | 0.0543 |
| GAACAATC | -0.0113 |
| CTTCGCCC | -0.197 |
| CATGCAGG | -0.0244 |
| AGTGATGC | -0.181 |
| GTTGAATA | 0.062 |
| AAATGAGC | -0.12 |
| ATATCCAC | 0.0593 |
| CGTACCTC | -0.142 |
| AGGCGTAT | -0.115 |
| ATTCGGCG | -0.208 |
| CAACGCAA | -0.00542 |

| Sequence | PBM E-score |
| --- | --- |
| GGCGAACA | -0.0575 |
| ACATGGGG | -0.0388 |
| GCTAACAC | 0.00077 |
| CCCGGCGG | -0.0572 |
| CGTCGTCC | -0.215 |
| CCCATAAG | 0.236 |
| ACCCTAGG | 0.428 |
| AGCCTCCT | -0.238 |
| AATGGCTA | 0.171 |
| CCAAAAGA | 0.109 |
| GGGTATGA | 0.261 |
| AGGCGAGC | -0.189 |
| CACCGACG | -0.102 |
| GTTAGCAA | 0.17 |
| CAAGTTGA | -0.0363 |
| GACCATCA | 0.0776 |
| GTTGCCTA | -0.0525 |
| CTGCCGCC | -0.234 |
| AAAGTTAA | 0.202 |
| AACGGCAG | -0.0615 |
| AAGTAAGT | -0.12 |
| ACTTATAC | 0.0964 |
| ATTGTGTC | 0.0821 |
| CAATTCTC | -0.085 |
| GATCTCGC | -0.0165 |

| Sequence | PBM E-score |
| --- | --- |
| ATTTATTG | -0.0622 |
| ATACCGCG | 0.107 |
| ATAGAAAG | -0.058 |
| GTTGGACA | -0.0571 |
| GAGCGCTC | -0.187 |
| TACTATGA | 0.0715 |
| AGTCGGAC | -0.207 |
| CCCCGCCC | 0.258 |
| CCGATTTC | 0.00395 |
| AACTTCTC | -0.00977 |
| ATACCAAA | 0.153 |
| ATGCACTC | -0.292 |
| ACAGATAG | -0.085 |
| GCTGGGTA | -0.00384 |
| ACTTATGG | 0.0134 |
| CCATTGAG | 0.0869 |
| AACAGTAT | 0.0128 |
| GGAGTTTA | -0.0721 |
| AACGTTCC | -0.14 |
| CTTGAGAA | 0.0299 |
| ATTTCGTA | -0.0658 |
| GCTAGTGA | 0.125 |
